Results from paper PMC10668032.
The list shows a part of the results. At the low end of the ranking the order means little.

Molecular target: SIX1-Q177R homeodomain (UniProt Q15475)
Assay: universal protein binding microarray
Settings: Universal all-10-mer PBM (8x60K, AMADID 030236), 300 nM GST-tagged protein, Alexa Fluor 488 anti-GST; buffer, salt, pH and temperature not stated; high values mean tight binding; most listed sequences are background and not binding sites; double strand, one strand shown

Sequence	binding signal
CCCCCTAC	0.267 E-score
CGTAACGA	-0.205 E-score
CTCCAGCC	-0.232 E-score
AGTGTGGA	0.162 E-score
GCTGTGCC	-0.161 E-score
ACTAGAGT	0.0587 E-score
ACACTACG	0.388 E-score
ACCCCTAA	0.183 E-score
AGCCCTAA	-0.149 E-score
GCGATGCC	-0.214 E-score
ATTGGCAA	-0.178 E-score
GAAGGTAC	0.0551 E-score
CCTTCACA	0.0313 E-score
AGAATAGA	-0.094 E-score
GGAACTAC	-0.0839 E-score
ACTCAAGA	0.0727 E-score
ATAACAGA	-0.123 E-score
ACGTTATA	0.0443 E-score
AGTTAGGG	0.0149 E-score
CCAGGCAA	-0.115 E-score
CTTAGCAC	0.0361 E-score
CGGTGGGA	-0.0776 E-score
AAGTGATC	0.184 E-score
GCTTGGCA	-0.0224 E-score
ATTACGCA	-0.18 E-score

Sequence	binding signal
CTATTGGC	0.00632 E-score
AGTTCGCG	-0.154 E-score
CCTTATAC	0.000135 E-score
AACTTCGG	-0.137 E-score
CACTGTCA	0.13 E-score
CCTATCTA	0.0167 E-score
AGTTAACC	0.0821 E-score
AAGGCGAG	-0.161 E-score
GATAAAGA	0.0419 E-score
ATCTAGTC	-0.107 E-score
ACGAGGCA	-0.165 E-score
AATCGCTC	-0.15 E-score
CGGTCCAA	-0.114 E-score
AATGCCGT	-0.149 E-score
AAAAATAT	-0.0209 E-score
ATGTCCGA	-0.115 E-score
CATGCCAC	0.0723 E-score
AATCGCAG	-0.0167 E-score
AATCGGAT	-0.0445 E-score
GTCATCAC	-0.0533 E-score
CCCCCCGG	0.254 E-score
AGGACCTA	-0.15 E-score
CGAGATAG	-0.177 E-score
CACCGCTC	0.27 E-score
CGTCTTTA	-0.0503 E-score

Sequence	binding signal
CCCTAAGG	0.0943 E-score
AAACGGAA	-0.261 E-score
CTCAGCAA	-0.256 E-score
CATTTGTC	-0.231 E-score
AGTACACG	0.426 E-score
CATATTAA	0.012 E-score
CTTAGGCA	-0.162 E-score
GGACCCCC	0.26 E-score
AGTATGCG	0.0688 E-score
CACAGATC	-0.0297 E-score
GAGCCCGA	-0.0374 E-score
GCATAGGA	0.00271 E-score
ACGGGGAG	0.0346 E-score
GACCCCCA	0.233 E-score
ATGCATGG	-0.052 E-score
TATTTGGA	-0.16 E-score
AGATCCTA	-0.145 E-score
AAACGACT	-0.0726 E-score
GGGACTGA	-0.127 E-score
CATTCCAC	-0.145 E-score
ACGTGTAT	0.321 E-score
ATAGCCAT	-0.105 E-score
ACAGTCAA	-0.101 E-score
AGGGCGCG	0.0639 E-score
AACGAGTA	-0.0303 E-score

Sequence	binding signal
AGTTTGCC	-0.173 E-score
CACAACCC	0.124 E-score
CAGGATTC	0.0219 E-score
GGGATCCC	0.31 E-score
AAATTCCT	-0.271 E-score
CGTATCAC	0.162 E-score
AATGCTGA	-0.0431 E-score
GATCCACC	0.158 E-score
CTCTTAGC	-0.0641 E-score
ACCGGCTC	0.0775 E-score
ACATAAAC	-0.101 E-score
AGAGGGTG	0.318 E-score
GTAAGGAC	-0.0271 E-score
AGCCGGCC	-0.0412 E-score
CACGACGC	0.151 E-score
ACTGCGCT	-0.0156 E-score
CTGACTGC	0.079 E-score
ACGGTTAG	0.0843 E-score
ACTAGCCG	0.0904 E-score
CATCGTTC	-0.0885 E-score
AACCCGAA	0.0146 E-score
AGACCGAT	-0.0232 E-score
GCAAGGCA	-0.306 E-score
AACAGAGA	-0.128 E-score
CAAGCTAA	-0.172 E-score

Sequence	binding signal
AGCACCGA	0.197 E-score
GGTTAGAA	0.147 E-score
CGGCGTGA	0.0302 E-score
AGAACCTG	-0.0509 E-score
GGAGCGTA	-0.161 E-score
CGGAGATC	-0.17 E-score
CAGTGTCA	0.458 E-score
GACGTTAA	-0.172 E-score
TAGCAGGA	-0.17 E-score
CTATACCA	0.118 E-score
CAGAGAGA	-0.0384 E-score
AAATGTCA	0.0139 E-score
TCGGTTAA	0.0271 E-score
CTGGTAAA	-0.254 E-score
GTTTGTTA	-0.0518 E-score
CTTTTTGA	-0.235 E-score
GATGACCC	0.211 E-score
AACTAGGG	0.0253 E-score
CCCGTTCG	0.00966 E-score
CGACTTGC	-0.261 E-score
GGGTTCTA	0.0617 E-score
CGAGGACA	0.0373 E-score
CTGCGCCC	-0.105 E-score
GCGTTCAA	-0.186 E-score
CGCCTCAG	-0.0149 E-score

Sequence	binding signal
ACTCTTAG	0.132 E-score
AACTGATC	0.086 E-score
CCTTTGCA	-0.0239 E-score
CAGTGGGG	0.131 E-score
GGGAATCA	-0.0836 E-score
AACACATC	0.037 E-score
CCATACCA	0.0476 E-score
TAATCGTA	-0.0691 E-score
ATAGTGAC	0.0607 E-score
CATCCTAG	-0.0156 E-score
AAACGGGA	0.0725 E-score
CAGCGAAC	-0.0555 E-score
AAGGTGGT	0.151 E-score
CCTGGTGC	0.126 E-score
GTCGGAGA	-0.0854 E-score
CTAATTCC	-0.135 E-score
ACGCAAGA	-0.138 E-score
ACTATGAG	-0.0513 E-score
CCAAGCGA	0.06 E-score
CGGAGAAG	-0.0422 E-score
AGGCACCG	0.0283 E-score
AATTGGCT	-0.239 E-score
CACCGCCA	0.291 E-score
TAGTCACA	0.149 E-score
CTAGTCCA	-0.0936 E-score

Sequence	binding signal
TATTTCCA	-0.0671 E-score
AAAAAACT	-0.0851 E-score
CGCCGGCA	-0.087 E-score
AAATCTGA	0.0413 E-score
GGGCTAAA	0.013 E-score
GATACCTA	0.327 E-score
AACGCTGG	0.0674 E-score
TCGCTAGA	-0.188 E-score
GCTCATCA	-0.0259 E-score
GGTCTGGA	-0.115 E-score
AGAGGGCA	-0.133 E-score
AACGCCGA	0.0799 E-score
CGAGCTTC	0.0487 E-score
AGGGAGCA	-0.161 E-score
GAGCTAGC	-0.0695 E-score
CAAGTCGA	-0.252 E-score
AGTTGGCG	-0.0842 E-score
CTTCGTGC	0.00645 E-score
ATATCGAT	-0.0929 E-score
GAATTCTC	-0.25 E-score
GTGGGGTA	0.278 E-score
CTTGGCGC	-0.162 E-score
